Assay results reported in PubChem BioAssay AID504832 (National Center for Advancing Translational Sciences (NCATS), 2011).
Out of some 310,000 compounds screened, about 18,000 (5.8%) were called active. The inconclusive results got no clear call from the source; some entries with a clear call stand among them for comparison. Calls come from the whole dose curve; as a rule, active = well fitted inhibition curve with a large enough effect; inconclusive = small, poorly fitted or top-dose-only effect, or another doubt; inactive = no such curve, though single readings can be large or run the other way. No potency is given beside an inconclusive call; the fits are too rough.

Assay: Primary qHTS for delayed death inhibitors of the malarial parasite plastid, 48 hour incubation
Conditions: P. falciparum luciferase growth in erythrocytes; series mostly up to 28.7 µM
Procedure, shortened: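 Parasite viability was followed by luminescence of a genomically integrated firefly luciferase. Cultures held 0.1% parasitemia at 2% hematocrit (final), incubated under 5% CO2 at 37 C.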
Potency is the fitted concentration of half-maximal effect; tags give direction and shape of the fitted curve.

Structure (SMILES) | Potency
COc1ccc(-c2csc3ncn(-c4cccc(C)c4)c(=O)c23)cc1OC | inconclusive [inhibitor, single point]
CCCc1nn(C)c(C(=O)Nc2ccccc2)c1Cl | inactive
O=C1C(c2ccccc2)=C(N2CC2)c2ccccc21 | active: 5.86 µM
CCN(C(=O)COC(=O)Cc1c(F)cccc1Cl)c1c(N)n(Cc2ccccc2)c(=O)[nH]c1=O | inconclusive [inhibitor, single point]
O=C(c1cc(-c2ccncc2)nc2ccc(Br)cc12)N1CCN(Cc2ccc3c(c2)OCO3)CC1 | active: 10.4 µM
O=C(c1cccc(Br)c1)c1conc1C(=O)c1ccco1 | inactive
O=C(CSc1ccc2nc(-c3ccccc3)cn2n1)NCC1CCCO1 (stereo not drawn) | inactive
COc1cccc2oc3ccc(C#CC4(N)CCCCC4)cc3c(=O)c12 | inactive
COc1ccc2cc(S(=O)(=O)N3CCCC3)ccc2c1 | inactive
O=C(c1cc(C2CC2)on1)N1CCCC(N2CCN(c3ccc(F)cc3)CC2)C1 (stereo not drawn) | inconclusive [inhibitor, single point]
COc1cccc(-c2ncc3ccccc3c2COC(=O)c2cccs2)c1 | inconclusive [inhibitor, partial curve, poor fit]
O=C(CNC(=O)c1cccs1)c1ccc(Cl)cc1 | inactive
COc1ccccc1C(=O)NCc1ccccn1 | inactive
Cn1c(=O)n(C)c2cc(NS(=O)(=O)c3ccc4c(c3)CCCC4)ccc21 | inactive
C#CCOCCOCCOCCNc1nc(N2CCN(C(=O)CCCCCCCCCCNC(=O)[C@@H](CCC(=O)O)n3cc(CCCCCN)nn3)CC2)nc(N2CCN(C(=O)CCCCCCCCCCNC(=O)[C@H](CO)n3cc(CCCSC)nn3)CC2)n1 | active: 4.65 µM
Cc1ccc(SCC(=O)OCC(=O)N2CCN(C(=O)c3ccco3)CC2)c(C)c1 | inactive
COC(=O)c1c(NC(=O)COC(=O)Cn2cnc3ccccc32)sc(C)c1C | inconclusive [inhibitor, full curve, poor fit]
O=C(NCc1ccc(Cl)cc1)c1ccccc1Oc1ccccc1 | inconclusive [inhibitor, single point]
CCOC(=O)N1CCN(C(=O)CCl)CC1 | inconclusive [inhibitor, single point]
C=CCn1c(=O)c2c(nc(Br)n2Cc2ccccc2Cl)n(C)c1=O | inconclusive [inhibitor, partial curve, poor fit]
O=C(NCCN1CCOCC1)C(=O)NCC1OCCN1S(=O)(=O)c1ccc(Br)cc1 (stereo not drawn) | inactive
O=C(C1CCCN1S(=O)(=O)c1cccc2nsnc12)N1CCN(c2ccc(F)cc2)CC1 (stereo not drawn) | inconclusive [inhibitor, single point]
S=C(Nc1ccccc1Cl)NC1CC2CCCC(C1)N2C1CC1 (stereo not drawn) | inactive
COC(=O)N/N=C/c1cccc(OCCSc2ccc(Cl)cc2)c1 | inactive
COc1ccc(OC)c(N(CC(=O)NC2CCCC2)S(=O)(=O)c2ccc(OC)c(OC)c2)c1 | inconclusive [inhibitor, full curve]

Structure (SMILES) | Potency
CCn1cc(C(=O)NCCCOC(C)C)c(=O)c2cc(S(=O)(=O)N3CCCC3)ccc21 | inconclusive [inhibitor, single point]
CCC(C(=O)N1CCN(S(=O)(=O)c2sc(C(=O)O)c(C)c2C(=O)O)CC1)c1ccccc1 (stereo not drawn) | inactive
CC(C)NC(=O)c1cc2c(C(F)(F)F)nn(C)c2s1 | inconclusive [inhibitor, full curve, poor fit]
Cc1cc(C)nc(SCC(=O)c2ccc(F)c(C)c2)n1 | inconclusive [inhibitor, partial curve, poor fit]
COc1ccc(C2CC(c3ccc(Cl)cc3)=NN2C(=O)c2cccc([N+](=O)[O-])c2)cc1 (stereo not drawn) | inconclusive [inhibitor, single point]
Cc1ccc(/C=C/C(=O)Nc2nnc(C)s2)o1 | inactive
CCC(=O)Nc1cccc(-c2nc3ncccc3o2)c1C | inconclusive [inhibitor, partial curve, poor fit]
CS(=O)(=O)N(Cc1ccc(Cl)cc1)c1ccc(C(=O)NCCSCc2ccco2)cc1 | inactive
CCOc1ccc(/C=C/C(=O)CCC(=O)O)cc1 | inactive
COc1ccc(C2CC(c3cccs3)=NN2C(=O)CSc2nc3ccccc3s2)cc1 (stereo not drawn) | inconclusive [inhibitor, single point]
CCOC(=O)c1c(C)[nH]c(C)c1C(=O)CSc1nnc(-c2cc(OC)c(OC)c(OC)c2)o1 | inconclusive [inhibitor, partial curve, poor fit]
CC(C)(C)C(=O)Nc1cccc(-c2ncon2)c1 | inactive
O=C(CSc1nnc(CNc2cccc(C(F)(F)F)c2)n1Cc1ccco1)NCc1ccco1 | inactive
COC(=O)c1cc(NC(=O)Nc2cccc(Cl)c2)ccc1Cl | active: 9.28 µM
CCC(CC)NC(=O)COC(=O)c1ccc(OCc2ccc(C(C)=O)cc2OC)c(OC)c1 | inconclusive [inhibitor, single point]
COc1ccc(NC(=O)Cc2ccccc2)cn1 | inactive
O=S(=O)(Nc1nc(CN2CCOCC2)nc2sc3c(c12)CCCC3)c1cc(F)ccc1F | inconclusive [inhibitor, single point]
Cc1ccc(C)c(CSc2nnc(-c3cccnc3)o2)c1 | inconclusive [inhibitor, single point]
O=C(Nc1cccc(Cl)c1)C1CCCN(c2cnccn2)C1 (stereo not drawn) | inactive
N#C/C(=C\c1ccc(O)c(O)c1)C(=O)Nc1ccccc1 | inconclusive [inhibitor, single point]
Cc1ccccc1NC(=O)COc1nsnc1N1CCOCC1 | inactive
Cc1ccc(C(=O)Nc2ccc(C(=O)N/N=C/c3ccccn3)cc2)cc1 | inconclusive [inhibitor, single point]
Cc1ccc(-n2ncc3c(=O)[nH]c(SCC(=O)N4CCCc5ccccc54)nc32)cc1 | inconclusive [inhibitor, single point]
Brc1ccc(C2=Nc3cccc4cccc(c34)N2)o1 | inconclusive [inhibitor, single point]
COc1ccccc1C(=O)Nc1ccnn1C1CCN(Cc2cnc(N(C)C)s2)CC1 | inactive

Structure (SMILES) | Potency
CC(C)CN(C(=O)c1ccco1)c1nc2ccccc2s1 | inconclusive [inhibitor, single point]
Brc1ccccc1OCCCCCN1CCOCC1 | inactive
COc1ccc(C(=O)Nc2ccc(S(=O)(=O)N3CCCC3)cc2)cc1 | inconclusive [inhibitor, partial curve]
Cc1cccc(N2CCN(C(=O)CCS(=O)(=O)c3ccc4c(c3)NC(=O)CO4)CC2)c1C | inactive
O=C(COC(=O)C12CC3CC(CC(O)(C3)C1)C2)Nc1ccccc1OC(F)F | inactive
COc1ccc(CCNc2nnc(Sc3nnnn3-c3ccccc3)s2)cc1OC | inconclusive [inhibitor, full curve]
COc1cc(/C=C/C(=O)OCC(=O)NC(=O)NC(C)C)ccc1O | inconclusive [inhibitor, single point]
CCOC(=O)C1(CCCc2ccccc2)CCN(C(=O)C2=C(C)OCCO2)CC1 | inconclusive [inhibitor, single point]
COC(=O)c1ccc(COc2ccccc2/C=N/Nc2cccc(C(=O)O)c2)cc1 | inactive
CSc1nc(N)nc(C(C)C)n1 | inconclusive [inhibitor, single point]
Cc1ccc(C(=O)COC(=O)CNS(=O)(=O)c2ccc(C)cc2)cc1 | inactive
O=[N+]([O-])c1ccc(Nc2nc(NCCO)nc(N3CCCC3)n2)cc1 | inconclusive [inhibitor, single point]
NC(=O)NCc1cccnc1 | inactive
O=C(NCC1CCCO1)c1ccc(CNS(=O)(=O)c2cccc(Cl)c2)cc1 (stereo not drawn) | inactive
O=C(CCCN1C(=O)c2cccc3cccc(c23)C1=O)N1CCN(c2ncccn2)CC1 | inconclusive [inhibitor, partial curve, poor fit]
Cc1ccc(NC(=O)COC(=O)c2cccc3c2C(=O)c2ccccc2C3=O)c(C)c1 | inconclusive [inhibitor, single point]
CCOC(=O)c1c(C)n(Cc2ccco2)c2c1cc(O)c1ccccc12 | active: 3.7 µM
CCC(C(=O)OCC(=O)Nc1ccc(C)c(S(=O)(=O)N2CCOCC2)c1)c1ccccc1 (stereo not drawn) | inconclusive [inhibitor, single point]
Cc1ccc(CSc2nnc(SCC(=O)N/N=C/c3ccccc3OCC(=O)O)s2)cc1 | inactive
COc1ccc(CN2CCNC(=O)C2CC(=O)NCCc2c[nH]c3ccccc23)c(OC)c1 (stereo not drawn) | inconclusive [inhibitor, partial curve, poor fit]
COc1ccc(OC)c(N(C(=O)c2ccco2)C(C(=O)NC2CCCC2)c2ccc(N3CCOCC3)cc2)c1 (stereo not drawn) | inconclusive [inhibitor, partial curve]
CCOC(=O)C1CCCCN1S(=O)(=O)c1ccc2c(c1)CC(C)N2C(=O)C1CCC1 (stereo not drawn) | inconclusive [inhibitor, partial curve]
CS(=O)(=O)N(Cc1ccccc1)c1ccc(C(=O)NCCSCc2ccco2)cc1 | inconclusive [inhibitor, single point]
